Measurements: the supplement of paper PMC11417369
± gives the standard deviation of the averaged measurements. Some of the results follow.

Each sequence was assayed on PfAP2-I AP2 domain 3 (GST-tagged) (assay: gcPBM binding intensity (ln(normalized median fluorescence intensity)); higher = stronger DNA binding).
Outline: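 In this array assay, P. falciparum DNA-binding domains with a GST tag, expressed in E. coli, were applied for 1 h to primer-extended double-stranded 36-bp intergenic genomic probes and negative controls on an Agilent 4 × 180k array. Bound protein was visualised with Alexa488 anti-GST antibody at 488 nm. Binding intensity is the highest Masliner-normalised natural-log median intensity across replicate spots of either probe orientation.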

Sequence	gcPBM binding intensity (ln)
ATTTTTAATTGAATCACACATTTCCTTTCTTTTGTG [CACACA_site4438]	7.67 ± 0.79
ATTAAAAATAAGAAGAGTACATATAATATATATACA [XGTACX_site3092]	7.51 ± 0.28
ACCTTTTGGATTATATGTACATATATATATATATAT [XGTACX_site2687]	9.54 ± 0.18
TTAAAAAGAAAGTTCACACACATATATATGACGGAA [CACACA_site2602]	7.92 ± 0.59
AGAATACATCTATGAACACACAGAGTTTTAAAAAAT [CACACA_site5514]	7.53 ± 0.64
ATATTATTTTAAAGTACACACATATATTGATATATA [CACACA_site7153]	8.12 ± 0.27
TTTTTCATTTAACAGAAGGGAGATAAAAAAAAAAAA [TGCATGCA_negctrl_site261]	8.15 ± 0.73
GTATGTATGTATGTATGTACGTATGTATGTATATAT [XGTACX_site3369]	9.04 ± 0.49
AATAATTATAAAAAATGTACAAAAAAAAAAAAAAAA [XGTACX_site3681]	7.88 ± 0.54
GCAAATCATGCTATGGTGCATATGTAAGATGAGCAT	10.4 ± 0.28
TTGTGATTATTATATTGTACAATAAGTATTAAAGAA [XGTACX_site2753]	8.2 ± 0.45
ATATATAATACTACAGTGCAATATATTATATTTGTT	10.7 ± 0.61
TTCCTCTTAAAATATACACACTGATTTAAGAAAAAA [CACACA_site5770]	7.75 ± 0.4
ATACTAAATATAAATTGTACTTTATTTATATTGAGA [XGTACX_site8699]	7.68 ± 0.26
TATATATATATATATATACACACTATATAATTCAAA [CACACA_site1023]	9.31 ± 0.39
TTTTTTTTTTTTTAGAGTACACACTTTTTTACATTT [XGTACX_site8159]	8.15 ± 0.49
TTAACATAGATATATACACACCAATGATGGCATTTA [CACACA_site6840]	7.61 ± 0.47
AAATAAAAGTTCACCTGTACACACATATATATATGT [XGTACX_site3513]	8.03 ± 0.5
CATAAAATATAAAACACACACACATATATTTATATA [CACACA_site6247]	7.61 ± 0.43
ACCTTATTTAGTTATAGTACACAAAGTATTAAACAT [XGTACX_site8418]	8.46 ± 0.46
TTTTTTTTTTTCTTCACACACAGTACTACTATTTAT [CACACA_site2409]	8.15 ± 0.65
GCGAATAATATGGACATACACACATATACATACATA [CACACA_site2115]	8.13 ± 0.53

Sequence	gcPBM binding intensity (ln)
TATATATATTTTTGTGTGCACTATAATATGAAAATA	11.4 ± 0.45
TCATTTATTGAGGAATGTACACGTAAAATTTAATAA [XGTACX_site4086]	8.28 ± 0.4
ATTTTTTTTTTTTTTTTCTTTTTTCTTCTTTTTTTT [CACACA_negctrl_site1223]	7.53 ± 0.63
ATATATATTATAAAATGTACAAATGTTATATAAAAT [XGTACX_site4750]	7.92 ± 0.45
TTTTTTTTTTTTTTATGTACATATATATATTTTATT [XGTACX_site6915]	8.06 ± 0.36
TAAAGGAAATAAAAAACATGCAAATATGAAATATAT [TGCATGCA_site745]	7.61 ± 1.1
AATTATAAATTGGACACACACATAAAAAATATGTAC [CACACA_site221]	7.7 ± 0.64
TAAAAAAAAACATGTGCACACGTTTTATCTACATAA [CACACA_site2336]	9.58 ± 0.13
ATACATAATAACTCCTGTACTTAAAAATGTATATAT [XGTACX_site1071]	7.82 ± 0.51
TTACATATTATACGAAGTACGTACAAATACTTATAT [XGTACX_site8598]	7.96 ± 0.18
TTGCATTGTCCATGCGCACACACTACTAGAATAATA [CACACA_site3678]	8.4 ± 0.4
TTTTTTTTTTTTTTTTTTAAACACCTCAAAAAAAAA [CACACA_negctrl_site807]	8.05 ± 0.73
TATATAATTATTTATTGTACACTCAAATCGATAAGG [XGTACX_site3216]	8.16 ± 0.099
ATATAAATATATTTTACACACAATGGAGAAAAAAAT [CACACA_site6450]	8.03 ± 0.68
GGATTAATATATTTACCACACACCCATTTCGATTTT [CACACA_site9200]	7.99 ± 0.67
ATCTTGAAGATTATTTGTACACAAAAGTTAAAATAT [XGTACX_site242]	7.79 ± 0.47
TATTTATAAATATAAACACACAACATTCTATGCATA [CACACA_site3243]	7.68 ± 0.37
AATGTATTATGTCTTCGTACACATAAATAAATAAAT [XGTACX_site4004]	7.79 ± 0.54
AACGAACACTATTACACACATACATACATATGTATG [CACACA_site1859]	8.05 ± 0.6
TTGTTTATTTGTAAAGCTAACAAGAAATGTGAATAT [CACACA_negctrl_site931]	7.87 ± 0.6
TATACATAAAAATGATGTACATATAATATATATATA [XGTACX_site3863]	8.94 ± 0.17
TTATTATTATAAAATTGTACTTGGTATATTAACATA [XGTACX_site5829]	7.72 ± 0.33
